# Test results taken from article PMC4336329 (PLoS ONE, 2015).
# Screen size: about 310,000 compounds; about 2,200 (0.71%) showed an effect of 50% or more. The effect is printed as a negative number. This is one part of the list.
# Biological target: human ether-à-go-go-related gene (hERG) potassium channel (human, UniProt Q12809)
# Assay: primary screen, population patch clamp on CHO cells stably expressing hERG
# human ether-à-go-go-related gene (hERG) potassium channel, sequence (Q12809 whole entry, looked up): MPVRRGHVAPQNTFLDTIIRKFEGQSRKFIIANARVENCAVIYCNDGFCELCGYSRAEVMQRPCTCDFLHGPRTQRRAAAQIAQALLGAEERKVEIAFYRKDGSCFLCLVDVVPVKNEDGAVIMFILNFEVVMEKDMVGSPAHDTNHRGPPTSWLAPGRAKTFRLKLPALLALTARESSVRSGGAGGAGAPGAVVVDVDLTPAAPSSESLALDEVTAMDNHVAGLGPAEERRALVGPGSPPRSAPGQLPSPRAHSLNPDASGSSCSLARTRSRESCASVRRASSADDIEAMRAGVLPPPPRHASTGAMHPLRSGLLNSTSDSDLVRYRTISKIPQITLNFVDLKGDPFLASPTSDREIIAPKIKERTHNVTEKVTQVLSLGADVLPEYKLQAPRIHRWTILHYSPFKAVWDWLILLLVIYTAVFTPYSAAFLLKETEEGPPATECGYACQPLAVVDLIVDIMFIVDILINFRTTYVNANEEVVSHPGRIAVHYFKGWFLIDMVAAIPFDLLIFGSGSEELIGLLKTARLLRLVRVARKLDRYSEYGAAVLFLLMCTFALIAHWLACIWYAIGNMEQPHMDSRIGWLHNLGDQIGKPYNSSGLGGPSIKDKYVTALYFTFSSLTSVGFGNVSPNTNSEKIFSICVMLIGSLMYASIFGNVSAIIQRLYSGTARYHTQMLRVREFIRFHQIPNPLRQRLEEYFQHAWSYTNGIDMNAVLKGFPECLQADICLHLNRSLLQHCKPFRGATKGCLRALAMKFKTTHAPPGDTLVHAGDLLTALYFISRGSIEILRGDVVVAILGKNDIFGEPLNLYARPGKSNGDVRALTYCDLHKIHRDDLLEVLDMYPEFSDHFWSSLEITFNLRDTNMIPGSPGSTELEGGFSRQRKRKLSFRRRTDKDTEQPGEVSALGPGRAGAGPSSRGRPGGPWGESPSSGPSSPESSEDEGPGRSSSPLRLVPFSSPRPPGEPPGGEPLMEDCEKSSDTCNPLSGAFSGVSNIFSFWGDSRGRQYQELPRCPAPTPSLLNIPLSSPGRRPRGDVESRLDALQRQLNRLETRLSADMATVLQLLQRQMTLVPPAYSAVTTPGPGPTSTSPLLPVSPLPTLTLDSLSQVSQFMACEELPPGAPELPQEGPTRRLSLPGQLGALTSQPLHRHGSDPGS
row,Compound,"hERG current change (%, negative = inhibition) at 1uM [%]"
1,CC(C)COP(=O)(CNC(=O)CN1C(=O)c2ccccc2S1(=O)=O)OCC(C)C,22.8
2,Cc1cccn2cc(CNS(=O)(=O)c3ccc4ccccc4c3)nc12,0.869
3,Cc1ccc(C2(O)CN(c3ccccc3)C3=[N+]2CCS3)cc1.[Br-] (centres unmarked),1.35
4,CC(=O)c1cccc(NC(=O)N2CCCC2C(=O)NCCc2ccccc2)c1 (centres unmarked),0.0778
5,Cc1ccc(/C=C2\SC(=S)N(CCCC(=O)NC3CCCC3)C2=O)cc1,-4.88
6,CCCP(=O)(CC(=O)N(CC)CC)c1ccccc1 (centres unmarked),0.791
7,Cc1ccc(Nc2nc(N/N=C\c3ccc4c(c3)OCO4)nc(N3CCOCC3)n2)cc1,1.66
8,COc1ccc(S(=O)(=O)N2CCN(C(=O)c3ccc(C)o3)CC2)cc1,6.74
9,CCN(Cc1ccccc1)c1ccc(/C=N/N=C(N)N)cc1,-2.06
10,Cc1cc(OCC(O)CNC(C)(C)C)ccc1Cl.Cl (centres unmarked),4.8
11,O=C1NC(=O)N(Cc2ccco2)C(=O)/C1=C\c1cccn1CCOc1ccccc1,14.3
12,CC(C)NS(=O)(=O)c1ccc(Oc2ncc(C(F)(F)F)cc2Cl)cc1,13.9
13,Cc1cc(Nc2ccc3c(c2)OCCO3)c2cc(Cl)ccc2n1.Cl,6.09
14,CC(C)(C)Nc1nc(SCC(=O)Nc2ccccc2Cl)nc(N2CCOCC2)n1,7.43
15,N#CC1=C(N)NC(SCC(=O)Nc2ccc(Br)cc2)=C(C#N)C12CCCCC2,17.5
16,CC(C)/C=N/NC(=O)c1ccc(Cl)cc1,6.18
17,CC(C)CC(=O)N1CCN(Cc2ccc(C(F)(F)F)cc2)CC1,14.8
18,CCCNC(=O)c1ccccc1NC(=O)Nc1ccccc1C,16
19,CCOc1cccc(/C=N/NC(=O)c2cc(C3CC3)[nH]n2)c1O,14.2
20,O=C(NNC1CC(=O)N(c2ccc(Br)cc2)C1=O)c1cccnc1 (centres unmarked),4.86
21,Cc1nn(-c2ccccc2)c(C)c1NC(=O)COC(=O)/C=C/c1ccccc1,4.15
22,Cc1ccc(SCC(=O)Nc2ccc(-c3nc4ccccc4[nH]3)cc2)cc1,18
23,CC1CCCN(CC(O)COC(c2ccccc2)c2ccccc2)C1 (centres unmarked),-15

row,Compound,"hERG current change (%, negative = inhibition) at 1uM [%]"
1,COc1ccccc1N1CCN(CCN2C(=O)C3CCCCN3C2=O)CC1 (centres unmarked),12.7
2,Cc1nnsc1SC(C)C(=O)O (centres unmarked),9.05
3,CCc1ccc(-c2cn3nc(-c4ccccc4)cnc3n2)cc1,4.28
4,CCOC(=O)C(=O)Nc1ccccc1C(=O)Nc1ccc(OC)cc1,11
5,C/C(=N/NS(=O)(=O)c1ccc(C)cc1)c1ccc(NC(=O)C(F)(F)F)cc1,1.22
6,CCOC(=O)C(=O)N1CCC(C(=O)OCC)CC1,6.02
7,Cc1ccc(-c2cn3cccnc3n2)cc1NC(=O)c1ccc(Br)o1,11.9
8,Cc1ccc(F)cc1NC(=O)CCNC(=O)c1ccc([N+](=O)[O-])cc1,3.53
9,O=C(CSc1nnc(SCc2ccccc2)s1)N/N=C/C=C/c1ccco1,-1.13
10,Nc1ccn(CC(=O)NCc2ccc3c(c2)OCO3)c(=O)n1,14.1
11,O=C(Nc1cnccn1)Nc1cccc(Cl)c1Cl,17.4
12,COc1ccc(C)cc1-n1nnnc1SCC(=O)N1CCC(C(=O)Nc2nccs2)CC1,8.77
13,CSc1cccc(NC(=S)NC(=O)CCc2ccccc2)c1,15.8
14,CCC(=O)N1CCc2cc(S(=O)(=O)NCCC(=O)N3CCN(c4ccccn4)CC3)ccc21,-2.58
15,CC(=O)N1CCN(CC(O)Cn2c3ccccc3c3ccccc32)CC1 (centres unmarked),11.6
16,O=C(O)c1ccc(S(=O)(=O)N2CCCCCC2)cc1,5.84
17,CCc1nnc(NS(=O)(=O)c2ccc(N3C(=O)c4ccccc4C3=O)cc2)s1,11.4
18,O=C(c1ccccc1)[C@@H]1[C@@H](C(=O)c2ccc(F)cc2)[C@@]2(C(=O)Nc3ccccc32)[C@H]2c3ccccc3C=CN12,11.4
19,CCN1C(=O)/C(=C/C2=Cc3ccccc3OC2C)SC1=S (centres unmarked),12.2
20,Cc1ccc(S(=O)(=O)Nc2ccncc2)c(C)c1N(C)S(=O)(=O)c1ccc(F)cc1,10.8
21,COc1cc(NC(C(=O)Nc2cccc(C(C)=O)c2)c2ccccc2)cc(OC)c1OC (centres unmarked),1.42
22,Cc1ccnc(NC(=O)c2ccccc2NC(=O)c2ccc(Cl)cc2Cl)c1,12.4
23,Cc1ccc(S(=O)(=O)NC(C)CCc2ccccc2)cc1C(N)=O (centres unmarked),11.2

row,Compound,"hERG current change (%, negative = inhibition) at 1uM [%]"
1,Cn1nnnc1SCC(=O)Nc1nc2c(s1)CCCC2,3.15
2,CCCCN1CCNC[C@@H]1Cc1ccc(O)cc1,13.1
3,Cc1cc(N2CCCC2=O)ccc1S(=O)(=O)N1CCOCC1,7.76
4,COc1ccc(-n2ncc3c(=O)n(CC(=O)OCc4ccccc4)cnc32)cc1,9.3
5,Cc1cc(NC(=O)CSc2nnc(Nc3ccccc3C)s2)no1,5.94
6,COc1ccc(Nc2nc(N)nc(CSc3nccc(C)n3)n2)cc1,9.07
7,Cc1ccc(CCNS(=O)(=O)c2ccc3c(c2)NC(=O)CCS3)cc1,10.8
8,CC(C)CCn1c(=O)c2ccccc2n2c(CCC(=O)NCC3CCCO3)nnc12 (centres unmarked),11.4
9,CCN(CC(=O)Nc1ccccc1OC)C(=O)C1CC2C=CC1C2 (centres unmarked),18.7
10,Cc1nn(Cc2ccccc2Cl)c(C)c1C(=O)NCc1ccco1,2.29
11,COCCNC(=O)Cn1c(=O)oc2cc(S(=O)(=O)N3CC(C)CC(C)C3)ccc21 (centres unmarked),8.05
12,COc1ccccc1Nc1nc(Cl)nc(NC(C)(C)C)n1,5.36
13,c1cncc(C2OCC3(CO2)COC(c2cccnc2)OC3)c1 (centres unmarked),11.8
14,CCS(=O)(=O)c1nc(S(=O)(=O)c2ccc(C)cc2)c(NCCCN2CCCC2=O)s1,7.18
15,Cc1cc(NC(=O)c2noc3c2CCCC3)nn1Cc1ccc(Cl)cc1,8.36
16,CN(C(=O)c1ccco1)c1nc2c(s1)CCCC2,-4.05
17,CS(=O)(=O)c1ccc(Sc2nc3ccccc3s2)c([N+](=O)[O-])c1,11.2
18,COc1ccccc1C1CC(=O)n2c(nc(-c3ccccc3)c2-c2ccccc2)S1 (centres unmarked),8.55
19,Cc1cc(C)c(C(=O)OCc2csc(CC(=O)Nc3ccccc3C)n2)c(C)c1,-13.3
20,CCOC(=O)/C=C1\SCC(=O)N1CC(=O)NC1CCCCC1,-1.7
21,O=S1(=O)CCOC[C@H](Cc2ccccc2)N1Cc1cccc(Cl)c1,6.92
22,CCOC(=O)c1c(NC(=S)NC(=O)c2cnn(CC)c2)sc2c1CCC(C)C2 (centres unmarked),3.84
23,CCNC(=O)CSc1nc2ccccc2c(=O)n1-c1cc(OC)ccc1OC,6.92

row,Compound,"hERG current change (%, negative = inhibition) at 1uM [%]"
1,Cc1sc(NC(=O)CSC2=NCCS2)nc1-c1ccccc1,11.1
2,O=C(NCC(c1ccco1)N1CCc2ccccc2C1)c1ccccc1Br (centres unmarked),-3.03
3,CC(C)[C@H](NC(=O)c1cccc(S(=O)(=O)N2CCCC2)c1)c1nc2ccccc2[nH]1,6.51
4,O=C(O)[C@@H]1CCCN1C(=O)c1ccco1,9.78
5,C=CCCC(=O)Nc1nc(C)c(-c2csc(Nc3cccc(OC)c3)n2)s1,-16.1
6,Cc1ccc(-c2ccc(SCC(=O)Nc3ccc4c(c3)OCCO4)nn2)cc1,9.42
7,NC(=O)c1ccc(NC(=O)CS(=O)(=O)c2cn(CC(=O)N3CCCC3)c3ccccc23)cc1,4.57
8,CC(OC(=O)Cc1coc2ccc3ccccc3c12)C(=O)NC(N)=O (centres unmarked),12.9
9,Fc1ccc(NC(=S)N/N=C/c2ccc(F)c(F)c2)c(F)c1,8.77
10,Cc1ccc(NC(=O)c2ccccc2Cl)cc1-n1cnnn1,-7
11,O=C(Cn1c(C2CC2)nc2ccccc2c1=O)Nc1ccc(Br)cc1,12.9
12,CN(C(=O)Oc1ccc([N+](=O)[O-])cc1)c1ccccc1,5.63
13,N#CCCn1cc(C(=O)Nc2ccc(C(=O)O)cc2)c(-c2ccc([N+](=O)[O-])cc2)n1,16
14,COc1ccccc1NS(=O)(=O)c1ccc(C(=O)N2CCCC(C)C2)cc1 (centres unmarked),8.59
15,CC(C)(CN1CCCCC1)NS(=O)(=O)c1ccc(Cl)cc1,-3.53
16,COC(=O)c1cc(OC)c(OC)cc1N1C(=O)CC(C)(C)CC1=O,16.8
17,COc1ccccc1OCCNC(=O)CC(NC(C)=O)c1ccccc1 (centres unmarked),18.3
18,CCCCn1c(N)c(N(CCOC)C(=O)C2CC(=O)N(Cc3ccc(C)cc3)C2)c(=O)[nH]c1=O (centres unmarked),-17.6
19,O=C(CSc1nnc(NC2CCCCC2)s1)NC1CCS(=O)(=O)C1 (centres unmarked),1.91
20,CCOc1ccccc1C(=O)Nc1cc(C)ccc1NC(=O)c1ccco1,-3.46
